Laboratory results taken from patent publication US10299477B2 (priority 2015, dated 2019).

Experiments:
[1] = system: Botrytis cinerea; assay: Test Example B: Gray mold on tomato; assay type: in vivo; conditions: for Test B (control value class, gray mold on tomato): in vivo
[2] = system: Alternaia brassicicola; assay: Test Example C: Alternaria sooty spot on cabbage; assay type: in vivo; conditions: for Test C (control value class, Alternaria sooty spot on cabbage): in vivo
[3] = system: Blumeria graminis f sp. hordei; assay: Test Example D: Powdery mildew on barley; assay type: in vivo; conditions: for Test D (control value class, powdery mildew on barley): in vivo
[4] = system: Puccinia recondita; assay: Test Example E: Brown rust on wheat; assay type: in vivo; conditions: for Test E (control value class, brown rust on wheat): in vivo
[5] = system: Plasmopara viticola; assay: Test Example G: Downy mildew on vine; assay type: in vivo; conditions: for Test G (control value class, downy mildew on vine): 250 ppm, sprayed 2.5 ml/pot before inoculation, evaluated 7-10 days after inoculation
[6] = system: Colletotrichum orbiculare; conditions: for Test H (control value class, anthracnose on cucumber): 250 ppm, sprayed 2.5 ml/pot before inoculation, evaluated 6-10 days after inoculation

Compound | Test B (control value class, gray mold on tomato) [1] | Test C (control value class, Alternaria sooty spot on cabbage) [2] | Test D (control value class, powdery mildew on barley) [3] | Test E (control value class, brown rust on wheat) [4] | Test G (control value class, downy mildew on vine) [5] | Test H (control value class, anthracnose on cucumber) [6] | Test B control value ([1]; Gray mold on tomato) | Test C control value ([2]; Alternaria sooty spot on cabbage) | Test D control value ([3]; Powdery mildew on barley) | Test E control value ([4]; Brown rust on wheat) | Test G control value ([5]; Downy mildew on vine, 250 ppm sprayed before inoculation, 7-10 days after inoculation) | Test H control value ([6]; in vivo)
Cn1c(-c2c(F)cc(F)cc2F)c(-c2cc(F)cc(F)c2Cl)ccc1=O [Compound 586] | H (H shows more than 50% of control values) | H (H shows more than 50% of control values) | H (H shows more than 50% of control values) | H (H shows more than 50% of control values) | L (L shows 50% or less of control values) | H (H shows more than 50% of control values) |  |  |  |  |  | 
COc1cc(OC)c(Br)c(-c2ccc(=O)n(C)c2-c2c(F)cccc2Cl)c1 [Compound 165] |  |  |  |  |  |  | H (H shows more than 50% of control values) | H (H shows more than 50% of control values) | H (H shows more than 50% of control values) | H (H shows more than 50% of control values) | H (H shows more than 50% of control values) | H (key: H shows more than 50% of control values; L shows 50% or less of control values)
CCn1c(-c2c(F)cccc2F)c(-c2ccc(F)cc2F)ccc1=O [Compound 629] | H (H shows more than 50% of control values) | H (H shows more than 50% of control values) | H (H shows more than 50% of control values) | H (H shows more than 50% of control values) | H (H shows more than 50% of control values) | H (H shows more than 50% of control values) |  |  |  |  |  | 
